# Reference: the supplement of paper PMC3334620
# Over roughly 33,000 sequences, “E-score (-0.5 to 0.5)” has its median near -0.035; the highest 2% begin near 0.34. The list shows a part of the results.
# Target: T1, Mot3 (UniProt P54785)
# T1 sequence: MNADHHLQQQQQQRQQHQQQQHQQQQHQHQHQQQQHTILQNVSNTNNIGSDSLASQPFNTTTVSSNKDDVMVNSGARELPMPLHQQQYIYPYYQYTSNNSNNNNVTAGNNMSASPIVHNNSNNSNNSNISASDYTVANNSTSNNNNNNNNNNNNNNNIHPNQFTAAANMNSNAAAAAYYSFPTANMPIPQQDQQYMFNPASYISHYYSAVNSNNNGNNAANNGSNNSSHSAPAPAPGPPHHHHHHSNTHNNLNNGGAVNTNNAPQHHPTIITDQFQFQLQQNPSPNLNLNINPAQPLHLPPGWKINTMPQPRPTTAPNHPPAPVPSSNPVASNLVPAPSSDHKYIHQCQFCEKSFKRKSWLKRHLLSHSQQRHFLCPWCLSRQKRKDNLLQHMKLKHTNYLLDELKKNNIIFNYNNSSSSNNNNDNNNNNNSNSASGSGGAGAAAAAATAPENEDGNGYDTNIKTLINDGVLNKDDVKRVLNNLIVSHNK
# Assay: PBM E-score (8-mer binding enrichment) (E-score (-0.5 to 0.5)); higher = stronger / more preferred TF binding; most listed sequences are background and not binding sites
# Details: protein concentration: 200 nM; construct: GST-full length
# Summary of the method: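 Yeast transcription factors, full-length or as DNA-binding domains, were expressed with a GST tag using PURExpress in vitro transcription/translation. At about 100-200 nM they were applied to universal all-10-mer Agilent arrays, double-stranded by primer extension on fresh or once-stripped slides. Fluorescent anti-GST detected bound protein, and masliner normalised the scans. E-scores for ungapped eight-base words, pooled with reverse complements, came from the Universal PBM Analysis Suite.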
row,Sequence,PBM E-score
1,ACGGAGCA,0.111
2,ACGATCAA,0.0643
3,GAGATCGA,-0.0959
4,GCTGACCC,-0.214
5,CAACTGGC,-0.268
6,CCTCCACC,-0.207
7,ACTCATAC,-0.0425
8,CTTAGACA,0.111
9,AATCGCAT,-0.0399
10,TATTTGAA,-0.027
11,CCAACACA,0.131
12,ATTGAAGC,-0.0722
13,AAGGTCTA,-0.177
14,CCTTAGCG,0.0459
15,GCCCAGAA,-0.137
16,CTAGTAGC,-0.108
17,CCAGCGGC,-0.0396
18,AAGTAACA,0.225
19,AAAAAGGT,0.285
20,GCCTTGAC,0.0121
21,ACTACGAG,-0.0186
22,CCGCTGAA,-0.0325

row,Sequence,PBM E-score
1,CCTGCTCA,0.255
2,CGTGTGTA,0.349
3,AATCCGGA,-0.187
4,AATGCGTG,0.166
5,CGCCTCAA,-0.051
6,CACTTTTA,0.117
7,AGTGAGTA,0.147
8,ACGCCGCC,-0.0194
9,AACGCGAA,0.268
10,GTCGAGTA,-0.0378
11,GTTAGACA,0.119
12,CTCATCTC,-0.141
13,GCGCGCAC,0.0018
14,CGGTGACG,-0.116
15,TACTAATA,0.0453
16,GGCATGAC,-0.142
17,ATAACTAT,0.0609
18,ACTGCGGG,-0.178
19,ATCAGACG,-0.154
20,CCCAATAA,-0.0424
21,GCGTTGAC,0.0224
22,ACGAGGGG,-0.153

row,Sequence,PBM E-score
1,ATCCTCGG,-0.157
2,AGTCGTAC,-0.14
3,TGGAGCAA,-0.138
4,AGAATAGC,0.013
5,AGGGCCCT,-0.368
6,ATCTGCTC,-0.121
7,AAACACAT,0.262
8,TACTGCTA,-0.254
9,AAATGACT,0.0159
10,GCAGGTTA,-0.0922
11,CACCCGTC,-0.202
12,CAAGTGGG,-0.116
13,CGTGTGCA,0.131
14,AAACGCGC,0.0362
15,AACAACAA,0.236
16,AAGTGTAA,0.0907
17,ACTCACTG,-0.00926
18,CAACGGCC,-0.222
19,CACGAGGG,-0.145
20,AGGACTAA,-0.186
21,AGATCCAC,-0.166
22,AATGTGAC,0.0328

row,Sequence,PBM E-score
1,GAGCGGAA,-0.238
2,AAAGTCAT,-0.0144
3,AGCCATTG,-0.153
4,AGCAAGGA,-0.0799
5,ACAGGTAG,-0.0129
6,AGTGCCTC,0.405
7,AACAGCCC,0.0511
8,ATCGTACG,-0.161
9,AAACGCAC,0.0986
10,GAGAACTC,-0.224
11,CGCGATAG,-0.0111
12,AAGATCAA,-0.0207
13,GACACTAA,-0.106
14,GATCTCAC,-0.27
15,ATCTATGC,0.133
16,TCTCGTCA,0.0328
17,CCGACTAA,-0.0823
18,CTGCATGC,0.221
19,AGGGTCTC,-0.11
20,CTCCGCGC,-0.38
